The antibiotic and cytotoxicity screens of Wong et al. (2023)
Some of the results follow.

What was measured:
HSkMC = human skeletal muscle cells; assay: cytotoxicity call (relative viability < 0.9); conditions: 10 µM
S. aureus RN4220 = assay: growth inhibition call (relative growth <= 0.2); conditions: 50 µM

| SMILES | cytotoxicity call (HSkMC) | growth inhibition call (S. aureus RN4220) |
| --- | --- | --- |
| COc1ccc2c3c([nH]c2c1)[C@@H](CO)N(CC1CCCCC1)C[C@]13CCN(CC1)C(=O)Nc1cccc(c1)F | active | inactive |
| O=C(C[C@@H]1CC[C@H]2[C@@H](COC[C@H](O)CN2C(=O)c2ccc3c(c2)OCO3)O1)NCCN1CCCCC1 | inactive | inactive |
| O=C(C[C@@H]1C[C@H]2c3cc(NC(=O)Nc4ccccc4)ccc3O[C@H]2[C@H](CO)O1)NCCN1CCCCC1 | inactive | inactive |
| CC(C)NC(=O)N(C)C[C@H]1Oc2ccc(NC(=O)C3CCCCC3)cc2CC(=O)N([C@H](C)CO)C[C@H]1C | inactive | inactive |
| C[C@@H]1CN([C@H](C)CO)C(=O)c2cc(NC(=O)CCCCCC(=O)Nc3ccccc3N)ccc2O[C@H]1CN(C)Cc1ccccc1 | inactive | inactive |
| COc1ccc(OC)c(S(=O)(=O)N2[C@@H]3CC[C@@H](C3)[C@H]2c2nc3cccc(OCc4ccccc4)c3[nH]2)c1 | inactive | inactive |
| O=C(O)c1ccnc(C(=O)O)c1 | inactive | inactive |
| Cc1ccc2nc(Nc3ccccc3)nc(-c3ccccc3)c2c1 | inactive | inactive |
| O=C(O)c1ccc(N[C@@H]2O[C@H](CO)[C@@H](O)[C@H](O)[C@H]2O)cc1 | inactive | inactive |
| COc1ccc([Si](C)(C)[C@H]2[C@H](CC(=O)N3Cc4ccccc4C[C@H]3CO)O[C@@]3(C(=O)N(Cc4cccc(N5CCOC5=O)c4)c4ccccc43)[C@@H]2C)cc1 | inactive | inactive |
| C[C@@H]1CN([C@@H](C)CO)C(=O)Cc2cc(NC(=O)Nc3ccc(C(F)(F)F)cc3)ccc2O[C@H]1CN(C)C(=O)Nc1cccc2ccccc12 | inactive | inactive |
